From publication PMC11995724, “Antibiotic target discovery by integrated phenotypic and activity-based profiling of electrophilic fragments” (Cell chemical biology, 2025)
In all, about 3,200 compounds went through this assay and about 75 (2%) showed an effect of 50% or more. This is one part of the list.

System: T1, S. aureus MSSA476
T1 construct: MSSA476
Set-up: species or system S. aureus MSSA476 (TSB) or V. cholerae SAD30 (LB); 384-well bacterial growth screen at 25 uM, OD600 relative to DMSO control
Settings: relative growth, OD600, TSB; 25 µM; inhibitor

SMILES | % of control remaining
N#CC(=Cc1cccc(Oc2ccccc2)c1)C(=O)N1CCCC1 [9-F06, 3-(3-phenoxyphenyl)-2-(pyrrolidine-1-carbonyl)prop-2-enenitrile] | 114.157%
C=CC(=O)NC(c1nccs1)C(F)(F)F (centres unmarked) [2-N07, N-[2,2,2-trifluoro-1-(1,3-thiazol-2-yl)ethyl]prop-2-enamide] | 101.305%
COc1ccc(OC)c(-c2csc(NC(=O)CCl)n2)c1 [4-H12, 2-chloro-N-[4-(2,5-dimethoxyphenyl)-1,3-thiazol-2-yl]acetamide] | 86.8985%
CC(Cl)C(=O)N1CC(c2cc(CO)on2)C1 (centres unmarked) [7-M10, 2-chloro-1-{3-[5-(hydroxymethyl)-1,2-oxazol-3-yl]azetidin-1-yl}propan-1-one] | 93.2496%
C=CC(=O)N(Cc1cc2ccccn2n1)CC1(O)CCCCC1 [1-H15, N-[(1-hydroxycyclohexyl)methyl]-N-({pyrazolo[1,5-a]pyridin-2-yl}methyl)prop-2-enamide] | 113.934%
O=C(CCl)Nc1cc(Cl)cc(Cl)c1 [4-K09, 2-chloro-N-(3,5-dichlorophenyl)acetamide] | 77.7513%
O=C(Cc1cccc(F)c1)N1CCSSCC1 [10-L21, 1-(1,2,5-dithiazepan-5-yl)-2-(3-fluorophenyl)ethan-1-one] | 106.25%
O=C(CCl)Cc1ccc(Cl)c(Cl)c1 [10-E15, 1-chloro-3-(3,4-dichlorophenyl)propan-2-one] | 111.25%
COc1ccc(S(N)(=O)=O)cc1NC(=O)CCl [6-O03, 2-chloro-N-(2-methoxy-5-sulfamoylphenyl)acetamide] | 101.073%
CC(Cl)C(=O)Nc1ccc(N(C)C)cc1.Cl (centres unmarked) [5-N04, 2-chloro-N-[4-(dimethylamino)phenyl]propanamide hydrochloride] | 77.2313%
Cc1ccc(C=C(C#N)C(=O)Nc2cc(Cl)ccc2Cl)s1 [9-E19, 2-cyano-N-(2,5-dichlorophenyl)-3-(5-methylthiophen-2-yl)prop-2-enamide] | 104.27%
COc1cccc(NC(=O)C(C#N)=Cc2ccc([N+](=O)[O-])o2)c1 [8-A19, 2-cyano-N-(3-methoxyphenyl)-3-(5-nitrofuran-2-yl)prop-2-enamide] | 99.2531%
C=CC(=O)NC(Cn1ccnc1)c1ccccc1 (centres unmarked) [2-M06, N-[2-(1H-imidazol-1-yl)-1-phenylethyl]prop-2-enamide] | 90.8616%
O=C(CCl)N1CCCCc2ccc([N+](=O)[O-])cc21 [5-I18, 2-chloro-1-(8-nitro-2,3,4,5-tetrahydro-1H-1-benzazepin-1-yl)ethan-1-one] | 104.189%
C=CC(=O)N1CCC(C(=O)N2CCCC(C3OCCO3)C2)CC1 (centres unmarked) [2-L16, 1-{4-[3-(1,3-dioxolan-2-yl)piperidine-1-carbonyl]piperidin-1-yl}prop-2-en-1-one] | 110.705%
C[C@@H](NC(=O)CCl)c1ccccc1 [6-O20, 2-chloro-N-[(1R)-1-phenylethyl]acetamide] | 101.415%
O=C(CCl)c1c[nH]c2ccccc12 [10-B05, 2-chloro-1-(1H-indol-3-yl)ethan-1-one] | 89.375%
O=C(CCl)Nc1ccccc1SCc1ccccc1 [4-J05, N-[2-(benzylsulfanyl)phenyl]-2-chloroacetamide] | 95.2835%
CC(Cl)C(=O)NC1(c2nnc[nH]2)CCC1 (centres unmarked) [6-F21, 2-chloro-N-[1-(4H-1,2,4-triazol-3-yl)cyclobutyl]propanamide] | 102.78%
C=CC(=O)N1CCC(C(=O)NCCc2cc[nH]n2)CC1 [3-E07, 1-(prop-2-enoyl)-N-[2-(1H-pyrazol-3-yl)ethyl]piperidine-4-carboxamide] | 111.101%
O=C(CCl)NCCCc1ccccc1 [4-N04, 2-chloro-N-(3-phenylpropyl)acetamide] | 77.7513%
Cc1ccc(C=C(C#N)C(=O)Nc2cccc3ncccc23)cc1 [9-J05, 2-cyano-3-(4-methylphenyl)-N-(quinolin-5-yl)prop-2-enamide] | 115.955%
C=CC(=O)NC1CCOc2c(F)cccc21 (centres unmarked) [1-D05, N-(8-fluoro-3,4-dihydro-2H-1-benzopyran-4-yl)prop-2-enamide] | 100.22%
C=CC(=O)Nc1ccc(O)c(C(=O)O)c1 [1-G06, 2-hydroxy-5-(prop-2-enamido)benzoic acid] | 91.4286%

SMILES | % of control remaining
CCc1ccc(CNC(=O)CCl)s1 [6-K05, 2-chloro-N-[(5-ethylthiophen-2-yl)methyl]acetamide] | 81.2683%
COc1ccc(NC(=O)CCl)cc1S(=O)(=O)N1CCOCC1 [4-D15, 2-chloro-N-[4-methoxy-3-(morpholine-4-sulfonyl)phenyl]acetamide] | 121.582%
O=C(CCl)Nc1nc(-c2ccccc2)cs1 [4-L04, 2-chloro-N-(4-phenyl-1,3-thiazol-2-yl)acetamide] | 143.306%
C=CC(=O)NCCNC(=O)[C@@]12CC[C@@](C)(C(=O)O1)C2(C)C [2-J18, N-(2-{[(1S,4R)-4,7,7-trimethyl-3-oxo-2-oxabicyclo[2.2.1]heptan-1-yl]formamido}ethyl)prop-2-enamide] | 119.408%
Cc1ccc(C=C(C#N)C(=O)Nc2ccccc2C(=O)O)s1 [9-K08, 2-[2-cyano-3-(5-methylthiophen-2-yl)prop-2-enamido]benzoic acid] | 38.0524%
N#CC(=Cc1c(F)cccc1F)C(=O)Nc1ccccc1F [9-J12, 2-cyano-3-(2,6-difluorophenyl)-N-(2-fluorophenyl)prop-2-enamide] | 108.764%
O=C(c1cc(=O)[nH]c2ccc([N+](=O)[O-])cc12)N1CCSSCC1 [10-B11, 4-(1,2,5-dithiazepane-5-carbonyl)-6-nitro-1,2-dihydroquinolin-2-one] | 85.9375%
N#CC(=Cc1ccc2ccccc2c1)C(=O)NC(N)=O [9-K10, {2-cyano-2-[(naphthalen-2-yl)methylidene]acetyl}urea] | 99.176%
C=CC(=O)N1CC(C)(C)c2cc(Cl)ccc21 [1-L14, 1-(5-chloro-3,3-dimethyl-2,3-dihydro-1H-indol-1-yl)prop-2-en-1-one] | 121.67%
CC(=O)Nc1ccc(C(=O)C(C)Cl)cc1 (centres unmarked) [10-K06, N-[4-(2-chloropropanoyl)phenyl]acetamide] | 112.188%
C=CC(=O)N1CCN(S(=O)(=O)Cc2ccon2)CC1 [1-J07, 1-{4-[(1,2-oxazol-3-yl)methanesulfonyl]piperazin-1-yl}prop-2-en-1-one] | 129.758%
C=CC(=O)N1CCCC2(CCCOC2)C1 (centres unmarked) [3-E11, 1-{2-oxa-8-azaspiro[5.5]undecan-8-yl}prop-2-en-1-one] | 83.9356%
Cc1nnsc1CNC(=O)C(C)Cl (centres unmarked) [7-M07, 2-chloro-N-[(4-methyl-1,2,3-thiadiazol-5-yl)methyl]propanamide] | 104.867%
Cc1ccc(C=C(C#N)C(=O)NC(C)C)s1 [9-O11, 2-cyano-3-(5-methylthiophen-2-yl)-N-(propan-2-yl)prop-2-enamide] | 102.472%
CC(Cl)C(=O)Nc1cccc(Cl)c1Cl (centres unmarked) [4-L13, 2-chloro-N-(2,3-dichlorophenyl)propanamide] | 108.623%
CC(Cl)C(=O)Nc1nc2ccccc2s1 (centres unmarked) [5-K05, N-(1,3-benzothiazol-2-yl)-2-chloropropanamide] | 80.51%
CC(Cl)C(=O)NCC1COc2ccccc2O1 (centres unmarked) [4-F13, 2-chloro-N-[(2,3-dihydro-1,4-benzodioxin-2-yl)methyl]propanamide] | 104.05%
C=CC(=O)NC(C)c1nnnn1C1CC1 (centres unmarked) [1-M09, N-[1-(1-cyclopropyl-1H-1,2,3,4-tetrazol-5-yl)ethyl]prop-2-enamide] | 120.264%
COc1ccc(C=C(C#N)C(=O)Nc2ccc(C)c(C)c2)cc1 [8-I05, 2-cyano-N-(3,4-dimethylphenyl)-3-(4-methoxyphenyl)prop-2-enamide] | 97.9253%
CC(Cl)C(=O)N1CCCC1c1nccc(C(F)(F)F)n1 (centres unmarked) [7-B11, 2-chloro-1-{2-[4-(trifluoromethyl)pyrimidin-2-yl]pyrrolidin-1-yl}propan-1-one] | 93.2496%
CC(Cl)C(=O)N1CCN(c2oc(-c3ccco3)nc2C#N)CC1 (centres unmarked) [7-D13, 5-[4-(2-chloropropanoyl)piperazin-1-yl]-2-(furan-2-yl)-1,3-oxazole-4-carbonitrile] | 78.179%
C=CC(=O)NCc1ccc2oc(=O)[nH]c2c1 [3-D14, N-[(2-oxo-2,3-dihydro-1,3-benzoxazol-5-yl)methyl]prop-2-enamide] | 117.37%
O=C(CCl)N1N=C(c2ccc(Cl)cc2)CC1c1ccco1 (centres unmarked) [5-L04, 2-chloro-1-[3-(4-chlorophenyl)-5-(furan-2-yl)-4,5-dihydro-1H-pyrazol-1-yl]ethan-1-one] | 80.8743%
